Data taken from the supplement of paper PMC3334620.
Whole data set: some 33,000 sequences, median “E-score (-0.5 to 0.5)” near -0.053, cut for the highest 2% near 0.37. The list shows a part of the results.

Target: Hap1 (UniProt P0CE41)
Experiment: PBM E-score (8-mer binding enrichment) (E-score (-0.5 to 0.5)); higher = stronger / more preferred TF binding; most listed sequences are background and not binding sites
Details: protein concentration: 200 nM; construct: GST-DNA-binding domain
Summary of the method: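 The E-score, a modified Wilcoxon-Mann-Whitney statistic, was computed by the Universal PBM Analysis Suite for every ungapped eight-base word pooled with its reverse complement. Scans behind it were normalised with masliner after bound GST-tagged yeast transcription factors were detected with fluorescent anti-GST. The proteins, at about 100-200 nM, had been applied to universal all-10-mer Agilent arrays made double-stranded by primer extension.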

Chain of UniProt P0CE41 (P0CE41 whole entry): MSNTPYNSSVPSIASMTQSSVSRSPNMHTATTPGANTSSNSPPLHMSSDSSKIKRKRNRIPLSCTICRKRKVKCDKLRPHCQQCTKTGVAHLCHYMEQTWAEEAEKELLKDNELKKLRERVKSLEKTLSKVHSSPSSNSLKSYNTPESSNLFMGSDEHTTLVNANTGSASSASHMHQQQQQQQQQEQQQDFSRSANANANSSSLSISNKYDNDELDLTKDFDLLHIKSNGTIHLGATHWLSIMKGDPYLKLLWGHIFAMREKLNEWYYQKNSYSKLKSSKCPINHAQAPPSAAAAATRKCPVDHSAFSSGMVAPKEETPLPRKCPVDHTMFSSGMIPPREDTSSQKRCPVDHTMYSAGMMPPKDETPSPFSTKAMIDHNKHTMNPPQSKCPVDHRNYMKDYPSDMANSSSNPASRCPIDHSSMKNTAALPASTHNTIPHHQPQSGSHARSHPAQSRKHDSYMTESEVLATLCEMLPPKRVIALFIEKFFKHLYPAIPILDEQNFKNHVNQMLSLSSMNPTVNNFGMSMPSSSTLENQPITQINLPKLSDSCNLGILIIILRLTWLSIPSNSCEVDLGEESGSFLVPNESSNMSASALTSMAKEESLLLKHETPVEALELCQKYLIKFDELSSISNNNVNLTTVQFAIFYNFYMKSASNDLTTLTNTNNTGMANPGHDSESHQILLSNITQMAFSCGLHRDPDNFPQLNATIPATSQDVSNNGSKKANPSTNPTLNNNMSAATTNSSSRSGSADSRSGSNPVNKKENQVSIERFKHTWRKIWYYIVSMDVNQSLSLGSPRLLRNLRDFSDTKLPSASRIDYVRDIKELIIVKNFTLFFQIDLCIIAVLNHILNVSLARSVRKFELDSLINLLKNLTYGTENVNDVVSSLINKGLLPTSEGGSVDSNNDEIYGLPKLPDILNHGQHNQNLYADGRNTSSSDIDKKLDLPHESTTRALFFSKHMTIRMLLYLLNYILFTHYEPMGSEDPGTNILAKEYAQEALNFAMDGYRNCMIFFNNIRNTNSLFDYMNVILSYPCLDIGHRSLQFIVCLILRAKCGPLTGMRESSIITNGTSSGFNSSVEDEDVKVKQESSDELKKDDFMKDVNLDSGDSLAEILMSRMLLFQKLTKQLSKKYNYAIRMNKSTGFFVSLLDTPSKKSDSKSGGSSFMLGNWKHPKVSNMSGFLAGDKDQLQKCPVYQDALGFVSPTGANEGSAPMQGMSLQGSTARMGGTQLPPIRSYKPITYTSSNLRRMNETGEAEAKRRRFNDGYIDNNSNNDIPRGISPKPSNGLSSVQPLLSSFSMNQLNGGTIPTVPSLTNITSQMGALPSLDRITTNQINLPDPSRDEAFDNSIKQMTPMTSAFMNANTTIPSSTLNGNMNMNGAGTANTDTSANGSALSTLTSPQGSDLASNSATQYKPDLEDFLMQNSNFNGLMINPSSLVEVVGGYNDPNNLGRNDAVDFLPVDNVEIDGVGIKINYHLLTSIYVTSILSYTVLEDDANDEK

Sequence	PBM E-score
CCTTTTGA	-0.0628
CAGCGTGG	-0.191
CACTACCA	-0.0953
AAGTGTGC	-0.132
GCTGTTAC	-0.067
AACCAACT	-0.06
GTAGAGAC	-0.193
ACCACACG	-0.344
GCCTGGTA	-0.224
CATGGAGG	-0.321
CTAGCGCC	0.0602
GGTCTAAC	0.102
GCCGAGAA	0.362
AGTTTCTA	-0.167
CTTTCAGC	0.0716
TCGATTAA	-0.157
AGTGCGCC	0.0517
CGGCTATA	0.383
AACCCCTT	-0.0725
CTCCAAAA	-0.172
CAAGCACC	-0.077
GACTCGAC	-0.137
CTTACCTA	-0.171
GAGTAGGA	-0.0973
AAGATATC	0.0169

Sequence	PBM E-score
CAACTAGA	-0.116
CTATTTGC	0.0173
CCTCGTTA	-0.198
GCGGCTTA	0.131
GTCAAATA	-0.156
CTTATATA	-0.0566
AAATTACA	0.0171
CGCACTTC	0.0529
AGGGGAAA	-0.129
AACTGCGC	-0.0367
CCGTGACG	0.16
AATTGGCG	-0.104
GTAGCCAC	-0.194
GATGATGA	0.00542
AAGATTTG	-0.12
CAACGTCC	0.117
AAGATTGT	-0.132
ATTACTCC	0.174
GATTAGAA	0.0297
CTTCAGAC	-0.277
CTATGTTA	0.0956
CCGTTTAC	0.148
CATGTACA	-0.238
CACGGCTC	0.093
GCGTACAA	-0.22

Sequence	PBM E-score
ACTATGCG	0.0886
CTCGCATC	0.0149
AGCATGAA	-0.127
AATGGTCT	-0.061
ATGACCTC	-0.155
ACTCAGCG	0.00119
GGGCAAGA	0.214
AGTGGAGC	-0.224
ATAAATCA	-0.147
TATGCCAA	-0.144
CCGGTGAA	0.218
CGGAGCTA	0.443
AGGTGGCA	-0.131
CTACGGAA	0.17
AACTTGAC	-0.201
GCATTAGA	-0.112
CCCTGCAC	-0.198
GCGCCGAC	0.227
GGATACCA	0.167
GATACCGA	0.185
GAGAGTAC	0.0133
AGGGAGTC	-0.324
AAGGTCGT	-0.281
AAAGCCTC	-0.104
GGGCTGGA	0.0689

Sequence	PBM E-score
CGTTCAAG	-0.0615
ACAGTGGC	-0.0988
GCAGAGGA	-0.252
TACCTCGA	-0.168
CAGTAACG	-0.0765
TCCCATAA	-0.253
AACACAGT	-0.165
CCACTTAA	-0.00639
ACAGTTGC	-0.156
ATTTACCA	0.0182
CCGCTTCC	0.189
AGGTGCTC	-0.269
AAGAGATC	-0.128
CATCTACG	-0.00563
AGCCCCAC	0.0459
AAACTCGC	-0.015
CGGTAATC	0.327
CTATCCTA	-0.0367
ATGGTTAG	-0.00971
CTCCACAC	-0.21
GCAAATCC	0.192
AGCATCCA	-0.168
CTGCAAAG	-0.243
GGGGAGCA	0.0129
AACCGGAG	0.425

Sequence	PBM E-score
GCCGCCAC	-0.0674
CTGCTTAA	-0.0757
CCAGTTAG	-0.31
CTGCCCAG	-0.0165
CAGCTAAG	-0.304
CTGAAGTA	-0.157
ACAACGTG	-0.24
GGCTAGAC	0.039
CGGCAACG	0.236
CCATTGCA	-0.258
CCGTAGCC	0.0489
ACTTACTG	-0.0636
CTCGAACA	-0.215
CAATTGAC	-0.0709
AGTTCTAC	-0.371
ACCGACCG	0.314
CCACCGCC	-0.0239
ATTTGGCA	-0.18
GAGACTCA	-0.141
GCCTGTTA	-0.172
AGATGAAG	-0.0989
GGCAACCA	-0.0667
ACTCATGG	-0.149
AGGGGCTG	-0.193
ATTTCTTC	0.0687

Sequence	PBM E-score
CTGTACGC	-0.0906
GCCGAAAA	0.345
AGTCAACT	-0.365
CTAGTGCA	0.00582
ACAAATTC	0.0612
CAATCGGC	0.138
CCAAGCTC	-0.0808
CACAATAA	-0.225
CAGTATTC	-0.0399
TGTGCCAA	-0.158
GCCAAACA	-0.0236
GCCGCACC	0.237
CCTGACAG	-0.149
GCTCGGCC	0.375
GCAAAGCA	-0.136
CTATCGAC	-0.00833
AGGGCTCA	-0.274
ACAGTACT	-0.105
CTCCCGTC	0.136
AATCGGGA	0.159
AAGCTTGT	-0.0185
GCCGTCAA	-0.0328
CGAGCTTA	0.106
CCTGATCC	0.0524
AGCGACAA	-0.227

Sequence	PBM E-score
AAGGTTTG	-0.0647
CTTCTGCC	-0.0164
GTTTGGCA	-0.126
TATGGCAA	-0.122
CCTATCTC	0.169
CTGGAGCA	-0.163
GACGGCTC	-0.00803
AAATACCC	0.189
ATGCCTGC	-0.0759
CTACGTAA	-0.0964
ATGGAGGC	-0.136
CATACAGA	-0.208
AAGTTCGA	0.0368
CGTGTCCA	-0.162
AGAACCTG	-0.205
ATGTCGTA	-0.278
GATTAAAC	0.231
TAACGATA	-0.0672
ACCAAGTG	-0.239
AGGGCGGA	0.17
AGGGACTC	-0.11
TGATCGAA	-0.0835
